Laboratory results reported in the supplement of paper PMC8285479.
Where a name gives a salt, the structure may show the parent alone. ± gives the standard deviation of the averaged measurements. Whole data set: some 1,900 compounds, median “normalised cell viability (NPI; 0 = phenylarsine oxide control, 1 = DMSO control)” near 1, cut for the lowest 2% near 0.039. The list shows a part of the results.

System: NCI-H1944
Assay: normalised cell viability (NPI; 0 = phenylarsine oxide control, 1 = DMSO control) (fraction of DMSO control); NCI-H1944 is a non-small cell lung cancer line; higher = more viable cells (less compound toxicity)
Settings: 6 days
[1] = glucocorticoid arm: hydrocortisone 2.75 uM co-treatment, compound 1 µM
[2] = glucocorticoid arm: hydrocortisone 2.75 uM co-treatment, compound 5 µM
[3] = glucocorticoid arm: hydrocortisone 2.75 uM pre-treated 2 days and continued, compound 1 µM
[4] = glucocorticoid arm: hydrocortisone 2.75 uM pre-treated 2 days and continued, compound 5 µM
[5] = glucocorticoid arm: vehicle, compound 1 µM
[6] = glucocorticoid arm: vehicle, compound 5 µM
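Further: CTB read-out in 384-well plates, mean of triplicate wells, normalised per plate against 1 µM phenylarsine oxide and 0.1% DMSO, compounds added 24 h after seeding.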

SMILES | normalised cell viability [1] | normalised cell viability [2] | normalised cell viability [3] | normalised cell viability [4] | normalised cell viability [5] | normalised cell viability [6]
NCCCCCCCCCCN [1,10-Diaminodecane] | 0.9903 ± 0.0091 | 0.967 ± 0.025 | 0.9883 ± 0.0076 | 0.962 ± 0.014 | 0.988 ± 0.0061 | 0.986 ± 0.0072
O=C(c1ccc(C(=O)N2CCC(N3CCCC3)CC2)c(Nc2ccccc2)c1)N1CCC(N2CCCC2)CC1 |  | 1.01 |  | 1.02 |  | 
O=Nc1ccc(O)c2ncccc12 | 1.02 ± 0.019 | 0.964 ± 0.047 | 1.01 ± 0.018 | 1.03 ± 0.022 | 0.989 ± 0.022 | 0.243 ± 0.13
OCCN1CCN(CCCN2c3ccccc3Sc3ccc(Cl)cc32)CC1 [Perphenazine] | 0.983 ± 0.015 | 0.917 ± 0.035 | 1.023 ± 0.0058 | 1.05 ± 0.021 | 1.03 ± 0.01 | 1.02 ± 0.029
CNc1nc(Nc2cnn(C3CCN(C4COC4)CC3F)c2Cl)ncc1C(F)(F)F (stereo not drawn) | 1.02 ± 0.01 | 1.05 ± 0.023 | 1.04 ± 0.01 | 1.05 ± 0.01 | 1.007 ± 0.0058 | 1.007 ± 0.0058
CC(C)(C#N)c1ccc(N2C(=O)OCc3cnc4ccc(-c5cnc6ccccc6c5)cc4c32)cc1 | 0.892 ± 0.021 | 0.929 ± 0.0056 | 0.899 ± 0.02 | 0.867 ± 0.047 | 0.9743 ± 0.0065 | 0.9857 ± 0.0064
CCN(CC)Cc1ccc2cc(COC(=O)Nc3ccc(C(=O)NO)cc3)ccc2c1 [Givinostat (ITF2357)] | 0.726 ± 0.049 | 0.00151 ± 0.0022 | 1 ± 0.018 | 0.0193 ± 0.0045 | 0.139 ± 0.006 | 0.000221 ± 0.0011
O=c1oc(Cl)c(Cl)c2ccccc12 [3,4-Dichloroisocoumarin] | 1 ± 0.0095 | 0.99 ± 0.023 | 1.004 ± 0.0098 | 0.976 ± 0.007 | 1.003 ± 0.0058 | 1.01 ± 0.015
O=C(c1ccc(F)cc1)N1CCCC(c2nc(-c3ccc(F)cc3)no2)C1 (stereo not drawn) | 1.03 ± 0.015 | 1.023 ± 0.0058 | 1.02 ± 0.011 | 1.013 ± 0.0058 | 1.01 | 1.001 ± 0.0078
CN1CCCC(n2nc(Cc3ccc(Cl)cc3)c3ccccc3c2=O)CC1 (stereo not drawn) [Azelastine HCl] | 0.984 ± 0.018 | 0.933 ± 0.037 | 1.003 ± 0.0058 | 0.946 ± 0.022 | 0.993 ± 0.007 | 0.965 ± 0.014
CN(C)CCC[C@@]1(c2ccc(F)cc2)OCc2cc(C#N)ccc21 [Escitalopram Oxalate] | 0.947 ± 0.023 | 0.914 ± 0.025 | 0.979 ± 0.0044 | 0.943 ± 0.025 | 0.981 ± 0.0027 | 0.976 ± 0.013
O=S(=O)(c1ccccc1)c1cnc2c(N3CCNCC3)cccc2c1 | 1.02 ± 0.015 | 1.03 ± 0.015 | 1.023 ± 0.0058 | 1.017 ± 0.0058 | 1.007 ± 0.0058 | 1.01 ± 0.015
CC(C)C[C@H](NC(=O)[C@H](CCc1ccccc1)NC(=O)CN1CCOCC1)C(=O)N[C@@H](Cc1ccccc1)C(=O)N[C@@H](CC(C)C)C(=O)[C@@]1(C)CO1 [Carfilzomib (PR-171)] | 0.0181 ± 0.0047 | 0.000755 ± 0.00097 | 0.777 ± 0.051 | 0.12 ± 0.025 | 0.0054 ± 0.0013 | -0.000926 ± 0.0006
CC(C)C[C@H](NC(=O)[C@H](CCc1ccccc1)NC(=O)CN1CCOCC1)C(=O)N[C@@H](Cc1ccccc1)C(=O)N[C@@H](CC(C)C)C(=O)[C@@]1(C)CO1 [Carfilzomib] | 0.0119 ± 0.0019 | 0.198 ± 0.017 | 0.652 ± 0.035 | 0.986 ± 0.013 | 0.00203 ± 0.0017 | 0.0026 ± 0.00057
O=C(O[C@H]1CN2CCC1CC2)N1CCc2ccccc2[C@@H]1c1ccccc1 [Solifenacin succinate] | 0.99 ± 0.021 | 0.971 ± 0.018 | 0.99 ± 0.051 | 0.9917 ± 0.0081 | 0.9963 ± 0.0063 | 0.9947 ± 0.0046
COc1cc(OC)c(C=C2C(=O)Nc3ccccc32)c(OC)c1 | 1.04 ± 0.01 | 0.723 ± 0.016 | 1.07 ± 0.031 | 1.11 ± 0.015 | 1.017 ± 0.0058 | 0.163 ± 0.029
O=Nc1c(-c2c(O)[nH]c3cc(Br)ccc23)[nH]c2ccccc12 | 1.15 ± 0.01 | 1.24 ± 0.032 | 1.127 ± 0.011 | 1.16 ± 0.031 | 1.04 ± 0.01 | 1.07 ± 0.01
CCN(CC)CC#CCOC(=O)C(O)(c1ccccc1)C1CCCCC1 (stereo not drawn) [Oxybutynin chloride] | 0.992 ± 0.02 | 0.954 ± 0.018 | 0.986 ± 0.012 | 0.979 ± 0.03 | 0.9887 ± 0.0093 | 0.989 ± 0.018
CCN(CC)CC#CCOC(=O)C(O)(c1ccccc1)C1CCCCC1 (stereo not drawn) [Oxybutynin Chloride] | 0.9927 ± 0.0065 | 0.967 ± 0.037 | 1 ± 0.012 | 1.04 ± 0.07 | 1.017 ± 0.0058 | 1.03 ± 0.011
N=C(N)c1ccccc1 [Benzamidine hydrochloride] | 1.01 ± 0.013 | 1.02 ± 0.01 | 1.003 ± 0.0058 | 1.03 ± 0.028 | 1.007 ± 0.0058 | 1.01
O=C(NCCNCC(O)COc1ccc(O)cc1)N1CCOCC1 (stereo not drawn) [Xamoterol hemifumarate] | 1.01 ± 0.01 | 1.02 ± 0.021 | 0.933 ± 0.14 | 1.03 ± 0.021 | 0.9973 ± 0.0031 | 1.005 ± 0.0092
O=Nc1c(-c2c(O)[nH]c3ccccc23)[nH]c2ccccc12 [Indirubin-3'-oxime] | 1.047 ± 0.0058 | 0.0929 ± 0.025 | 1.05 | 0.364 ± 0.071 | 1.017 ± 0.0058 | 0.057 ± 0.019
CCCCC/C=C\C[C@@H](O)/C=C/c1cccc(C[C@@H](O)CCCCO)n1 | 1.005 ± 0.0081 | 1.05 ± 0.04 | 1.01 ± 0.015 | 1.04 ± 0.011 | 1.013 ± 0.0058 | 1.027 ± 0.0058
COc1ccc2[nH]cc(CCNC(C)=O)c2c1 [Melatonin] | 1.007 ± 0.0058 | 0.998 ± 0.022 | 1.013 ± 0.0058 | 0.989 ± 0.018 | 0.9957 ± 0.0029 | 1 ± 0.016
CN(C)Cc1cccc(N=C(c2ccccc2)c2c(O)[nH]c3cc(C(N)=O)ccc23)c1 | 0.9887 ± 0.005 | 0.927 ± 0.025 | 0.991 ± 0.019 | 0.943 ± 0.018 | 0.9967 ± 0.0058 | 0.985 ± 0.011
COc1ccc(C(=O)NCc2cccnc2)cc1C(=O)NCc1cccnc1 [Picotamide] | 0.989 ± 0.017 | 0.992 ± 0.004 | 0.867 ± 0.26 | 1 ± 0.016 | 1.007 ± 0.0058 | 1.003 ± 0.0064
O=c1c(O)c(-c2cc(O)c(O)c(O)c2)oc2cc(O)cc(O)c12 [Myricetin] | 1.006 ± 0.0075 | 1.01 ± 0.02 | 0.999 ± 0.0017 | 1.05 ± 0.063 | 0.992 ± 0.0072 | 0.998 ± 0.011
